Legend:
[1] = biological target: recombinant human IL-13 (CHO; Applicants' own material) (human, UniProt P35225 part only, limits assumed); test: cell-based or functional assay
human IL-6 = biological target: T1, human IL-6 (human, UniProt P05231 30-212); test: affinity chromatography on NHS-activated Sepharose derivatized with recombinant human IL-6
T1 construct: also called recombinant human IL-6

UniProt P35225, sequence (P35225 35-146 limits assumed): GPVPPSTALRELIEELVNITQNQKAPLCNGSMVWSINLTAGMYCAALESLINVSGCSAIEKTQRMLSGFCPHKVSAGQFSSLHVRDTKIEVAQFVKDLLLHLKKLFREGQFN
human IL-6, sequence (P05231 30-212 limits assumed): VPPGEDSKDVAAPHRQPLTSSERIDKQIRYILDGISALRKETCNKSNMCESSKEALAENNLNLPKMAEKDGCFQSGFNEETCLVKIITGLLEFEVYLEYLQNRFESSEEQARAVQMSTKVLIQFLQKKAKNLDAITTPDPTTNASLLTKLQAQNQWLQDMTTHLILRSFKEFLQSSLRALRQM

B1: IL-4/IL-13 Trap 1132 (Fc fusion)
chain: [not shown - about 200 residues]PTETQPPVTNLSVSVENLATVIWTWNPPEGASSNCSLWYFSHFGDKQDKKIAPETRRSIEVPLNERICLQVGSQCSTNESEKPSILVEKCISPPEGDPESAVTELQCIWHNLSYMKCSWLPGRNTSPDTNYTLYYWHRSLEKIHQCENIFREGQYFGCSFDLTKVKDSSFEQHSVQIMVKDNAGKIKPSFNIVPLTSRVKPDPPHIKNLSFHNDDLYVQWENPQNFISRCLFYEVEVNNSQTETHNVFYVQEAKCENPEFERNVENTSCFMVPGVLPDTLNTVRIRVKTNKLCYEDDKLWSNWSQEMSIGKKRNSTG[not shown - human IgG1 Fc]
notes: The changes are already in the entry; Nucleotides numbered from -69: the first 23 residues precede the mature N-terminus; not cut here
IC50, TF1 cell proliferation with 15 pM IL-13 (CHO), MTS [1]: 17 pM

B2: gp130-Cγ1 dimer (other)
chain: ELLDPCGYISPESPVVQLHSNFTAVCVLKEKCMDYFHVNANYIVWKTNHFTIPKEQYTIINRTASSVTFTDIASLNIQLTCNILTFGQLEQNVYGITIISGLPPEKPKNLSCIVNEGKKMRCEWDGGRETHLETNFTLKSEWATHKFADCKAKRDTPTSCTVDYSTVYFVNIEVWVEAENALGKVTSDHINFDPVYKVKPNPPHNLSVINSEELSSILKLTWTNPSIKSVIILKYNIQYRTKDASTWSQIPPEDTASTRSSFTVQDLKPFTEYVFRIRCMKEDGKGYWSDWSEEASGITYEDRPSKAPSFWYKIDPSHTQGYRTVQLVWKTLPPFEANGKILDYEVTLTRWKSHLQNYTVNATKLTVNLTNDRYLATLTVRNLVGKSDAAVLTIPACDFQATHPVMDLKAFPKDNMLWVEWTTPRESVKKYILEWCVLSDKAPCITDWQQEDGTVHRTYLRGNLAESKCYLITVTPVYADGPGSPESIKAYLKQAPPSKGPTVRTKKVGKNEAVLEWDQLPVDVQNGFIRNYTIFYRTIIGNETAVNVDSSHTEYTLSSLTSDTLYMVRMAAYTDEGGKDGPEFTFTTPKFAQGEIESG[not shown - human IgG1 constant region]
notes: Homodimer without IL-6Rα-κ, removed on the IL-6 column; also called (gp130-Cγ1)2
binding result (human IL-6): no binding

Reference: patent US7083949
